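Method: 48-hour compound exposure of cells in 96-well plates, five concentrations, linear interpolation of endpoints. GI50 is the concentration that inhibits growth by half.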 Not every entry of the source has a single result; some have several. This list holds those alone. There may be further records. A record mostly stands for its own series of concentrations, not given here; a value can be the end of its range.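 At the TGI there is no net growth.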
Key:
Assay in all cases: growth of human tumour cells (NCI), 48 h
786-0 renal = system: 786-0 renal
A498 renal = system: A498 renal
A549 NSCLC = system: A549 NSCLC
ACHN renal = system: ACHN renal
BT-549 breast = system: BT-549 breast
EKVX NSCLC = system: EKVX NSCLC
HCC-2998 colon = system: HCC-2998 colon
HCT-15 colon = system: HCT-15 colon
HOP-62 NSCLC = system: HOP-62 NSCLC
HOP-92 NSCLC = system: HOP-92 NSCLC
HS 578T breast = system: HS 578T breast
HT29 colon = system: HT29 colon
MOLT-4 leukemia = system: MOLT-4 leukemia
NCI-H226 lung = system: NCI-H226 lung
NCI-H23 lung = system: NCI-H23 lung
OVCAR-4 ovarian = system: OVCAR-4 ovarian
OVCAR-5 ovarian = system: OVCAR-5 ovarian
OVCAR-8 ovarian = system: OVCAR-8 ovarian
SF-268 CNS = system: SF-268 CNS
SN12C renal = system: SN12C renal
SNB-75 CNS = system: SNB-75 CNS
U251 CNS = system: U251 CNS
LOX IMVI melanoma = system: LOX IMVI melanoma
M19-MEL melanoma = system: M19-MEL melanoma
NCI-H460 lung = system: NCI-H460 lung
SF-295 CNS = system: SF-295 CNS
SK-OV-3 ovarian = system: SK-OV-3 ovarian

COC(=O)[C@@H](C)C[C@H](Cc1ccccc1)NC(=O)c1cccc([C@@H](C[C@H](C(C)C)N(C)C(=O)[C@@H](NC(=O)[C@H]2CCCCN2C)C2CC2)OC(C)=O)n1
GI50 (786-0 renal): 3.33 nM and 55.8 nM
GI50 (A498 renal): 3.33 nM and 50.5 nM
TGI (A498 renal): 3.6 nM and > 100 µM
GI50 (A549 NSCLC): 3.33 nM and 102 nM
GI50 (ACHN renal): 3.33 nM and 47.3 nM
TGI (BT-549 breast): 4.69 nM and 247 nM
GI50 (EKVX NSCLC): 3.33 nM and 205 nM
GI50 (HCC-2998 colon): 3.33 nM and 518 nM
GI50 (HCT-15 colon): 3.33 nM and 168 nM
TGI (HOP-62 NSCLC): 4.77 µM and > 100 µM
GI50 (HOP-92 NSCLC): 1.91 nM, 3.33 nM, 842 nM
GI50 (HS 578T breast): 3.33 nM and 66.6 nM
TGI (HT29 colon): 485 nM and > 100 µM
GI50 (MOLT-4 leukemia): 3.33 nM and 36.7 nM
GI50 (NCI-H226 lung): 3.52 nM and 66.7 µM
GI50 (NCI-H23 lung): 3.33 nM and 51.8 nM
GI50 (OVCAR-4 ovarian): 3.33 nM and 1.41 µM
GI50 (OVCAR-5 ovarian): 3.33 nM and 1.32 µM
GI50 (OVCAR-8 ovarian): 3.33 nM and 35.7 nM
GI50 (SF-268 CNS): 3.33 nM and 81.3 nM
GI50 (SN12C renal): 3.33 nM and 36 nM
GI50 (SNB-75 CNS): 1.56 µM and 21.5 nM
GI50 (U251 CNS): 3.33 nM and 40.9 nM

COc1cc(CN[C@H]2CCc3cc(OC)c(OC)c(OC)c3-c3ccc(SC)c(=O)cc32)cc(OC)c1
TGI (LOX IMVI melanoma): 610 nM and 19.3 µM
TGI (M19-MEL melanoma): 92 nM and > 100 µM
TGI (NCI-H460 lung): 246 nM and 14.2 µM
TGI (SF-268 CNS): 703 nM and 24.5 µM
TGI (SF-295 CNS): 273 nM and > 100 µM
TGI (SK-OV-3 ovarian): 75.9 nM and 78.7 µM

Source: PubChem BioAssay (NCI)
